In paper PMC12820563:
This is one part of the list. The list includes weakly bound sequences.

These sequences were tested against T1, MBP-FoxP3dN (UniProt Q99JB6) (assay: PD-seq (MBP pull-down with sequencing)). Details: 20 mM Tris-HCl pH 7.5, 100 mM NaCl, 1.5 mM MgCl2, 0.4 uM protein, 0.1 uM dsDNA library, 30 min, room temperature, amylose pull-down; high values mean tight binding; double strand, one strand shown.
T1 sequence: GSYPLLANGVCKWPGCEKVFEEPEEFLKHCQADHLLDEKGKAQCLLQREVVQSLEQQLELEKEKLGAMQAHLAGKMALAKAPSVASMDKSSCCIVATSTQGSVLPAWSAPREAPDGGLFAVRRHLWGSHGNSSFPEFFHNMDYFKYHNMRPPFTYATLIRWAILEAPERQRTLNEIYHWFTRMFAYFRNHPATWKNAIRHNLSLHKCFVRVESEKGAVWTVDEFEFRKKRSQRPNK
For “GATGATTGTTCTCCCAGCTGATGAATTATGAATTTCGAGTAAACAAATTTTCCTAATCTTTCTGTTCAAGCGCCATCTAC”, the binding signal (RPM ratio (pull-down/input)) was 1.57.
Sequence “GATGATTGTTCTCCCAGCTGATGAATTGAAAAGCTCGAGTAAACAAATTTTCCTAATCTTTCTGTTCAAGCGCCATCTAC” has a binding signal (RPM ratio (pull-down/input)) of 0.192.
For “GATGATTGTTCTCCCAGCTGATGAATTTCGACACTCGAGTAAACAAATTTTCCTAATCTTTCTGTTCAAGCGCCATCTAC”, the binding signal (RPM ratio (pull-down/input)) was 1.96.
In the case of “GATGATTGTTCTCCCAGCTGATGAATTGTTGTTGTCGAGTAAACAAATTTTCCTAATCTTTCTGTTCAAGCGCCATCTAC”, the binding signal (RPM ratio (pull-down/input)) is reported as 7.65.
With “GATGATTGTTCTCCCAGCTGATGAATTTCCTTTTTCGAGTAAACAAATTTTCCTAATCTTTCTGTTCAAGCGCCATCTAC” the binding signal (RPM ratio (pull-down/input)) was 0.286.
Sequence “GATGATTGTTCTCCCAGCTGATGAATTGTATTCGTCGAGTAAACAAATTTTCCTAATCTTTCTGTTCAAGCGCCATCTAC” has a binding signal (RPM ratio (pull-down/input)) of 1.73.
Work on “GATGATTGTTCTCCCAGCTGATGAATTGTCGTTCTCGAGTAAACAAATTTTCCTAATCTTTCTGTTCAAGCGCCATCTAC” yielded a binding signal (RPM ratio (pull-down/input)) of 0.975.
In the case of “GATGATTGTTCTCCCAGCTGATGAATTAATAATGTCGAGTAAACAAATTTTCCTAATCTTTCTGTTCAAGCGCCATCTAC”, the binding signal (RPM ratio (pull-down/input)) is reported as 0.447.
Work on “GATGATTGTTCTCCCAGCTGATGAATTCCCTCCTTCGAGTAAACAAATTTTCCTAATCTTTCTGTTCAAGCGCCATCTAC” yielded a binding signal (RPM ratio (pull-down/input)) of 0.232.
With “GATGATTGTTCTCCCAGCTGATGAATTGAACGATTCGAGTAAACAAATTTTCCTAATCTTTCTGTTCAAGCGCCATCTAC” the binding signal (RPM ratio (pull-down/input)) was 0.312.
Work on “GATGATTGTTCTCCCAGCTGATGAATTTTCTTTCTCGAGTAAACAAATTTTCCTAATCTTTCTGTTCAAGCGCCATCTAC” yielded a binding signal (RPM ratio (pull-down/input)) of 0.34.
“GATGATTGTTCTCCCAGCTGATGAATTGTCGCGGTCGAGTAAACAAATTTTCCTAATCTTTCTGTTCAAGCGCCATCTAC” was tested, and the binding signal (RPM ratio (pull-down/input)) was 0.456.
Sequence “GATGATTGTTCTCCCAGCTGATGAATTACCAAGTTCGAGTAAACAAATTTTCCTAATCTTTCTGTTCAAGCGCCATCTAC” has a binding signal (RPM ratio (pull-down/input)) of 0.267.
In the case of “GATGATTGTTCTCCCAGCTGATGAATTGACACTGTCGAGTAAACAAATTTTCCTAATCTTTCTGTTCAAGCGCCATCTAC”, the binding signal (RPM ratio (pull-down/input)) is reported as 0.464.
“GATGATTGTTCTCCCAGCTGATGAATTTACCGAATCGAGTAAACAAATTTTCCTAATCTTTCTGTTCAAGCGCCATCTAC” showed a binding signal (RPM ratio (pull-down/input)) of 0.376.
Work on “GATGATTGTTCTCCCAGCTGATGAATTTACTTCTTCGAGTAAACAAATTTTCCTAATCTTTCTGTTCAAGCGCCATCTAC” yielded a binding signal (RPM ratio (pull-down/input)) of 0.632.
For “GATGATTGTTCTCCCAGCTGATGAATTGCATTTGTCGAGTAAACAAATTTTCCTAATCTTTCTGTTCAAGCGCCATCTAC”, the binding signal (RPM ratio (pull-down/input)) was 3.18.
For “GATGATTGTTCTCCCAGCTGATGAATTTGCGCGCTCGAGTAAACAAATTTTCCTAATCTTTCTGTTCAAGCGCCATCTAC”, the binding signal (RPM ratio (pull-down/input)) was 0.879.
“GATGATTGTTCTCCCAGCTGATGAATTACGGTCATCGAGTAAACAAATTTTCCTAATCTTTCTGTTCAAGCGCCATCTAC” was tested, and the binding signal (RPM ratio (pull-down/input)) was 0.667.
Sequence “GATGATTGTTCTCCCAGCTGATGAATTGCACAATTCGAGTAAACAAATTTTCCTAATCTTTCTGTTCAAGCGCCATCTAC” has a binding signal (RPM ratio (pull-down/input)) of 1.04.
For “GATGATTGTTCTCCCAGCTGATGAATTCAAGACGTCGAGTAAACAAATTTTCCTAATCTTTCTGTTCAAGCGCCATCTAC”, the binding signal (RPM ratio (pull-down/input)) was 0.243.
“GATGATTGTTCTCCCAGCTGATGAATTAGTATGATCGAGTAAACAAATTTTCCTAATCTTTCTGTTCAAGCGCCATCTAC” was tested, and the binding signal (RPM ratio (pull-down/input)) was 1.04.
With “GATGATTGTTCTCCCAGCTGATGAATTTTCCAAGTCGAGTAAACAAATTTTCCTAATCTTTCTGTTCAAGCGCCATCTAC” the binding signal (RPM ratio (pull-down/input)) was 0.151.
Work on “GATGATTGTTCTCCCAGCTGATGAATTTCACTGCTCGAGTAAACAAATTTTCCTAATCTTTCTGTTCAAGCGCCATCTAC” yielded a binding signal (RPM ratio (pull-down/input)) of 0.327.
“GATGATTGTTCTCCCAGCTGATGAATTGCTGTTGTCGAGTAAACAAATTTTCCTAATCTTTCTGTTCAAGCGCCATCTAC” gave a binding signal (RPM ratio (pull-down/input)) of 2.74.
“GATGATTGTTCTCCCAGCTGATGAATTACCAAGATCGAGTAAACAAATTTTCCTAATCTTTCTGTTCAAGCGCCATCTAC” was tested, and the binding signal (RPM ratio (pull-down/input)) was 0.227.
For “GATGATTGTTCTCCCAGCTGATGAATTCTACACCTCGAGTAAACAAATTTTCCTAATCTTTCTGTTCAAGCGCCATCTAC”, the binding signal (RPM ratio (pull-down/input)) was 0.327.
For “GATGATTGTTCTCCCAGCTGATGAATTGTGGTATTCGAGTAAACAAATTTTCCTAATCTTTCTGTTCAAGCGCCATCTAC”, the binding signal (RPM ratio (pull-down/input)) was 2.19.
Sequence “GATGATTGTTCTCCCAGCTGATGAATTGACAGGCTCGAGTAAACAAATTTTCCTAATCTTTCTGTTCAAGCGCCATCTAC” has a binding signal (RPM ratio (pull-down/input)) of 0.356.
Sequence “GATGATTGTTCTCCCAGCTGATGAATTACTTGCCTCGAGTAAACAAATTTTCCTAATCTTTCTGTTCAAGCGCCATCTAC” has a binding signal (RPM ratio (pull-down/input)) of 0.506.
With “GATGATTGTTCTCCCAGCTGATGAATTGTGCTATTCGAGTAAACAAATTTTCCTAATCTTTCTGTTCAAGCGCCATCTAC” the binding signal (RPM ratio (pull-down/input)) was 4.38.
Work on “GATGATTGTTCTCCCAGCTGATGAATTCGAGTTCTCGAGTAAACAAATTTTCCTAATCTTTCTGTTCAAGCGCCATCTAC” yielded a binding signal (RPM ratio (pull-down/input)) of 0.671.
